# From the supplement of paper PMC9135407
# Where “and” joins values, the source holds several entries; their conditions need not be identical. Equal entries are not always repeated. Structures can show the parent of a compound that is named as a salt. Among all 5,800 compounds or so, about 620 (11%) showed activity.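 How the source made its calls: active = score above a cut-off or among the top three wells of a plate; in these data no inactive exceeds 0.85.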 The list shows a part of the results, in another mix than the full data.
# Test system: primary human hepatic stellate cells (donor 1)
# Assay: scaled lipid accumulation score (0 = DMSO-like, 1 = nortriptyline-like); higher = stronger HSC inactivation (lipid re-accumulation), active = hit call of the paper
# Details: 48 h
# [1] = library stock concentration: 10 mM
# [2] = library stock concentration: 400 uM
# [3] = library stock concentration: 2 mM
# [4] = library stock concentration: 3.33 mM
# [5] = library stock concentration: 1 mM
# [6] = library stock concentration: 80 uM
compound,measurement,setting,value
C/C=C1\C(=O)C[C@H]2[C@@H]3CCC4=CC(=O)CC[C@]4(C)[C@H]3CC[C@]12C [Guggulsterone],scaled lipid accumulation score,[1],inactive: 0.14
CN1C2CCC1CC(OC(c1ccccc1)c1ccccc1)C2.CS(=O)(=O)O (stereo unspecified) [Benztropine mesylate],scaled lipid accumulation score,[1],active: 1.05
COc1ccc2c(c1OC)C(=O)O[C@@H]2[C@H]1c2c(cc3c(c2OC)OCO3)CCN1C [Noscapine hydrochloride],scaled lipid accumulation score,library stock concentration: 4.4 mM,inactive: 0.008
same,scaled lipid accumulation score,[1],inactive: 0.011 and inactive: 0.074
COc1ccc2c(c1OC)C(=O)O[C@@H]2[C@H]1c2c(cc3c(c2OC)OCO3)CCN1C [Noscapine],scaled lipid accumulation score,,inactive: ≤ 0
COc1ccc2c(c1OC)C(=O)O[C@@H]2[C@H]1c2c(cc3c(c2OC)OCO3)CCN1C [Noscapine hydrchloride],scaled lipid accumulation score,[1],inactive: ≤ -0.055
CC(=O)NCCCS(=O)(=O)O,scaled lipid accumulation score,[1],inactive: ≤ 0
Cc1ccc(C(=O)Nc2cccc(C(F)(F)F)c2)cc1-c1ccc2nc(NCCN3CCOCC3)ncc2c1,scaled lipid accumulation score,[2],inactive: ≤ -0.005
same,scaled lipid accumulation score,[3],inactive: 0.748
O=C(O)c1cc(/N=N/c2ccc(O)c(C(=O)O)c2)ccc1O [Olsalazine Sodium],scaled lipid accumulation score,[4],inactive: ≤ 0
same,scaled lipid accumulation score,[1],inactive: 0.208
O=C(O)c1cc(/N=N/c2ccc(O)c(C(=O)O)c2)ccc1O,scaled lipid accumulation score,[1],inactive: ≤ 0
CCCCCCCCCCCCCCCC(=O)OC(CC(=O)O)C[N+](C)(C)C (racemic) [Palmitoyl-DL-Carnitine chloride],scaled lipid accumulation score,[1],inactive: 0.446
"CCCCCC(=O)CC[C@H]1C=CC(=O)[C@@H]1C/C=C\CCCC(=O)O [13,14-dihydro-15-keto Prostaglandin A2]",scaled lipid accumulation score,[5],inactive: ≤ 0
CCOC(=O)O[C@]1(C(=O)COC(=O)CC)CC[C@H]2[C@@H]3CCC4=CC(=O)C=C[C@]4(C)[C@H]3[C@@H](O)C[C@@]21C [Prednicarbate],scaled lipid accumulation score,,inactive: ≤ 0
Cc1nc2cc3nc(-c4cccs4)cnc3cc2n1C,scaled lipid accumulation score,[4],inactive: ≤ 0
COc1cc2ncnc(Nc3cccc(Cl)c3)c2cc1OC [Tyrphostin AG 1478],scaled lipid accumulation score,[1],active: 0.882
O=C(O)[C@H](O)c1ccccc1 [R-(-)-Mandelic Acid],scaled lipid accumulation score,[5],inactive: 0.02
C(=C\c1ccccc1)/CN1CCN(C(c2ccccc2)c2ccccc2)CC1 [Cinnarizine],scaled lipid accumulation score,,inactive: ≤ 0
same,scaled lipid accumulation score,[1],inactive: 0.354
C[C@]1(O)C[C@@H](c2nc(-c3ccc4ccc(-c5ccccc5)nc4c3)c3c(N)nccn32)C1 [OSI-906 (Linsitinib)],scaled lipid accumulation score,[4],inactive: ≤ 0
same,scaled lipid accumulation score,[1],inactive: ≤ 0
C[C@]1(O)C[C@@H](c2nc(-c3ccc4ccc(-c5ccccc5)nc4c3)c3c(N)nccn32)C1,scaled lipid accumulation score,[6],inactive: 0.05
same,scaled lipid accumulation score,[2],inactive: ≤ -0.009
same,scaled lipid accumulation score,[3],inactive: ≤ -0.009
same,scaled lipid accumulation score,[1],inactive: ≤ -0.009
CO[C@H]1/C=C/O[C@@]2(C)Oc3c(C)c(O)c4c(O)c(cc(O)c4c3C2=O)NC(=O)/C(C)=C\C=C\[C@H](C)[C@H](O)[C@@H](C)[C@@H](O)[C@@H](C)[C@H](OC(C)=O)[C@@H]1C [Rifamycin sv],scaled lipid accumulation score,library stock concentration: 2.9 mM,inactive: ≤ 0
C[C@@H]1CCO[C@H]2Cn3cc(C(=O)NCc4ccc(F)cc4F)c(=O)c(O)c3C(=O)N12,scaled lipid accumulation score,[4],inactive: ≤ 0
same,scaled lipid accumulation score,[1],inactive: 0.05
O=C(O)c1cc(=O)cc(C(=O)O)[nH]1 [Chelidamic acid],scaled lipid accumulation score,[1],inactive: ≤ 0
COC(=O)[C@H]1[C@H]2C[C@@H]3c4[nH]c5cc(OC)ccc5c4CCN3C[C@H]2C[C@@H](OC(=O)c2cc(OC)c(OC)c(OC)c2)[C@@H]1OC [Reserpine],scaled lipid accumulation score,[1],active: 0.944
OC[C@H]1O[C@H](O[C@]2(CCl)O[C@H](CCl)[C@@H](O)[C@@H]2O)[C@H](O)[C@@H](O)[C@H]1Cl [Sucralose],scaled lipid accumulation score,[4],inactive: ≤ 0
same,scaled lipid accumulation score,library stock concentration: 5 mM,inactive: ≤ 0
same,scaled lipid accumulation score,[1],inactive: ≤ -0.001
CNC(=O)c1cc(Oc2ccc(NC(=O)Nc3cc(C(C)(C)C)nn3-c3ccc4ncccc4c3)c(F)c2)ccn1,scaled lipid accumulation score,[6],inactive: ≤ -0.016
same,scaled lipid accumulation score,[2],inactive: ≤ -0.016
same,scaled lipid accumulation score,[3],inactive: ≤ -0.016
same,scaled lipid accumulation score,[1],inactive: ≤ -0.016
CNC(=O)c1cc(Oc2ccc(NC(=O)Nc3cc(C(C)(C)C)nn3-c3ccc4ncccc4c3)c(F)c2)ccn1 [DCC-2036 (Rebastinib)],scaled lipid accumulation score,[4],inactive: 0.04
same,scaled lipid accumulation score,[1],inactive: 0.032
CC(C)C[C@H](NC(=O)[C@@H](NC(=O)c1cccc(-c2ccccc2)n1)[C@@H](C)O)B(O)O,scaled lipid accumulation score,[4],inactive: 0.572
same,scaled lipid accumulation score,[1],inactive: 0.748
COc1ccc2c(c1)c(CC(=O)O)c(C)n2C(=O)c1ccc(Cl)cc1 [Indomethacin],scaled lipid accumulation score,,inactive: 0.046
same,scaled lipid accumulation score,[5],inactive: 0.012
same,scaled lipid accumulation score,[4],inactive: ≤ 0
same,scaled lipid accumulation score,[1],inactive: ≤ 0 and inactive: ≤ -0.055 and inactive: 0.004
same,scaled lipid accumulation score,library stock concentration: 10.4 mM,inactive: ≤ 0
same,scaled lipid accumulation score,library stock concentration: 14 mM,inactive: 0.02
NCc1cccc2ccncc12 [8-Isoquinoline methanamine (hydrochloride)],scaled lipid accumulation score,[5],inactive: 0.003
Nc1nc2ccc(OC(F)(F)F)cc2s1 [Riluzole],scaled lipid accumulation score,[4],inactive: ≤ 0
same,scaled lipid accumulation score,library stock concentration: 9.6 mM,inactive: ≤ 0
same,scaled lipid accumulation score,[1],inactive: ≤ 0
Nc1nc2ccc(OC(F)(F)F)cc2s1 [Riluzole hydrochloride],scaled lipid accumulation score,,inactive: 0.26
same,scaled lipid accumulation score,[1],inactive: 0.017
Oc1cc(O)c2c(c1)O[C@H](c1ccc(O)c(O)c1)[C@H](O)C2 [Epicatechin],scaled lipid accumulation score,[1],inactive: 0.066
Oc1cc(O)c2c(c1)O[C@H](c1ccc(O)c(O)c1)[C@H](O)C2 [Epicatechin-(-)],scaled lipid accumulation score,,inactive: ≤ 0
CCOC(=O)C1(CCCCCCOc2ccc(Cl)cc2)CO1 (stereo unspecified),scaled lipid accumulation score,[1],inactive: ≤ 0
CCCCC[C@H](O)/C=C/[C@H]1C(=O)C[C@H](O)[C@@H]1C/C=C\CCCC(=O)OCC(O)CO (stereo partly specified) [Prostaglandin D2-1-glyceryl ester],scaled lipid accumulation score,[5],inactive: ≤ 0
CCOC(=O)O[C@]1(C(=O)OCCl)CC[C@H]2[C@@H]3CCC4=CC(=O)C=C[C@]4(C)[C@H]3[C@@H](O)C[C@@]21C,scaled lipid accumulation score,[1],inactive: ≤ 0
CCOC(=O)O[C@]1(C(=O)OCCl)CC[C@H]2[C@@H]3CCC4=CC(=O)C=C[C@]4(C)[C@H]3[C@@H](O)C[C@@]21C [Loteprednol etabonate],scaled lipid accumulation score,[4],inactive: 0.028
same,scaled lipid accumulation score,[1],inactive: ≤ 0
